This is an account of results in patent publication US20220023439A1, “ACTIVATABLE ANTI-CD166 ANTIBODIES AND METHODS OF USE THEREOF” (priority 2018, published 2022).

Where only a bound is given, the exact number is not on record here.

This series is described as follows: Pharmacokinetics of total and intact activatable antibody and DM4 metabolites in serum of human subjects.

B1: Combination 55 (conjugate)
heavy: QITLKESGPTLVKPTQTLTLTCTFSGFSLSTYGMGVGWIRQPPGKALEWLANIWWSEDKHYSPSLKSRLTITKDTSKNQVVLTITNVDPVDTATYYCVQIDYGNDYAFTYWGQGTLVTVSS[skipping human IgG1 constant region]
light: QGQSGQGLCHPAVLSAWESCSSGGGSSGGSAVGLLAPPGGLSGRSDNHGGSDIVMTQSPLSLPVTPGEPASISCRSSKSLLHSNGITYLYWYLQKPGQSPQLLIYQMSNLASGVPDRFSGSGSGTDFTLKISRVEAEDVGVYYCAQNLELPYTFGQGTKLEIKRTVAAPSVFIFPPSDEQLKSGTASVVCLLNNFYPREAKVQWKVDNALQSGNSQESVTEQDSKDSTYSLSSTLTLSKADYEKHKVYACEVTHQGLSSPVTKSFNRGEC
modifications: DM4 via SPDB linker
B1: the “Form of anti-CD166 activatable antibody circulating in the serum” value is “predominantly in an intact form”; the “Ratio of intact to total anti-CD166 activatable antibody for Dose 1 AUC0-tau and Cmax” value is “approximately consistent”. Where the note is “multiple dosing”, the “Accumulation ratio of minimum plasma concentration (Cmin) (Dose 3:Dose 1) for intact anti-CD166 activatable antibody” value is at most 1.34 and the “Trend of Cmin accumulation ratio with dose” value is reported as “did not trend with dose”. Besides, under “serum”, the “DM4-Me circulating, as share of total anti-CD166 activatable antibody” value is recorded as below 1.9 mol % and the “Free DM4 circulating, as share of total anti-CD166 activatable antibody” value is listed as below 1.9 mol %. The “Intact and total anti-CD166 activatable antibody exposure (AUC0-tau and Cmax) versus dose” value (single dose) is recorded as “generally increased with increasing dose”.
